The source of these data is ChEMBL document CHEMBL4888484, “Replenishing the malaria drug discovery pipeline: Screening and hit evaluation of the MMV Hit Generation Library 1 (HGL1) against asexual blood stage Plasmodium falciparum ,using a nano luciferase reporter read-out” (2022).

The whole screen tested about 150,000 compounds, of which about 540 (0.36%) showed an effect of 50% or more. The list shows a part of the results.

For the assay, the system named is Plasmodium falciparum. Kind of assay: Primary screen in NF54 nanoGlo assay, in single point, at 2uM, 72h; a lower Z score goes with more inhibition. The assay is classed as functional, Erythrocyte. The note with it: timepoint 72 hour.
For `Cn1nc(-c2ccc(F)cc2)cc1C(=O)Nc1ccccc1Cc1nc(-c2ccco2)no1`, the “% Inhibition” value was -9% and the Z score is recorded as 1.76.

Take `O=C(c1n[nH]c2ccccc12)N1CCC(Cc2ccccc2)CC1`: the “% Inhibition” value is -3% and the Z score is listed as 0.55.

Take `O=S1(=O)CCc2nnc(-c3cccc(C(F)(F)F)c3)n2CC1`: the “% Inhibition” value is on record as 0% and the Z score stood at 0.

In the case of `Cc1cc2c(C)c(C(=O)N3CCOCC3)oc2c(S(=O)(=O)N2CCC(C)CC2)c1C`, the “% Inhibition” value was 6% and the Z score is on record as -0.71.

`COCCNC(=O)NC(=O)CNc1c(F)cccc1F`: the “% Inhibition” value is given as 2% and the Z score is -0.36.

As for `COc1ccc(OC)c2c1cc(C(=O)NC[C@@H]1CCCN3CCCC[C@H]13)n2C`, the “% Inhibition” value is -3% and the Z score is listed as 0.37.

As for `CC1CC(C)CN(CC(O)COCC2CC3CCC2C3)C1` (stereo unspecified), the “% Inhibition” value was 6% and the Z score is given as -0.74.

Turning to `O=C(c1cccc2ccccc12)N1C2CCC1COC2`, the “% Inhibition” value is reported as -10% and the Z score is 1.95.

For `O=C1N(CC2CCCCC2)CCC[C@@]1(O)CN1CCCC1`, the “% Inhibition” value came to 9% and the Z score was -1.87.

Consider `O=C(NC1CCOCC1)N1CC[C@@](O)(c2ccccc2)[C@H]2CCCC[C@H]21`, for which the “% Inhibition” value is -10% and the Z score amounted to 1.88.

`CN(C[C@H]1COc2ccccc2O1)c1nccn2cnnc12`: the “% Inhibition” value is recorded as -10% and the Z score is 1.83.

Take `CCOc1ccccc1[C@H]1C2CCCCC2(O)CCN1C(=O)c1cc(OCC)c(OCC)c(OCC)c1` (stereo partly specified): the “% Inhibition” value was -11% and the Z score stood at 1.72.

Consider `CC1(C)O[C@H]2OC(C(=O)NCC(=O)Nc3ccccc3O)[C@@H]3OC(C)(C)O[C@@H]3[C@H]2O1` (stereo partly specified), for which the “% Inhibition” value is given as -10% and the Z score is on record as 1.28.

`CCn1nc(C)c([C@H](C)NS(=O)(=O)N2CCOCC2)c1C`: the “% Inhibition” value was 6% and the Z score is -0.84.

In the case of `CCOC1(C(=O)N2CCc3c(CN4CCCC4)cccc32)CCCC1`, the “% Inhibition” value is reported as 7% and the Z score is on record as -0.88.

Take `CC(=O)Nc1ccn2ncc(C(=O)N3CCOCC3)c2c1`: the “% Inhibition” value is -5% and the Z score was 0.82.

In the case of `Cc1nc(N2CCC[C@H](n3cncn3)C2)ccc1Br`, the “% Inhibition” value is given as -8% and the Z score is on record as 1.68.

As to `CS(=O)(=O)c1ccc(N2CCN(CC3CCCC3)C(=O)C2)cc1`, the “% Inhibition” value is -4% and the Z score was determined as 0.51.

Turning to `CC(C)CCNC1CCOC12CCN(C(=O)OC(C)(C)C)C2` (stereo unspecified), the “% Inhibition” value was -7% and the Z score is listed as 1.17.

Consider `CNS(=O)(=O)C1CCN(C(=O)C(C)Cc2cccc(Cl)c2)C1` (stereo unspecified), for which the “% Inhibition” value was 0% and the Z score amounted to 0.02.

As for `O=C1NCCOCCCN(C(=O)c2cccs2)[C@H]2CCCC[C@@H]12`, the “% Inhibition” value was -6% and the Z score was 0.84.

Take `C/C(=C\c1ccco1)c1c(-c2ccccc2)ncn1[C@@H](C)c1nnn[nH]1`: the “% Inhibition” value was 19% and the Z score is -2.45.

Turning to `CCOC[C@@]12CCN(C(C)=O)C[C@@H]1CN(C(=O)c1ccc(C)c(C)c1)C2`, the “% Inhibition” value is listed as -16% and the Z score is 1.87.
